# In the RNAGym collection of RNA variant scans (doi:10.7554/elife.90254):
# Read counts are not given, so values of variants with three or more changes are uncertain.
# B1: OR4K15 (parent)
# chain: GUUAACGGUCAUAGGCCAUGGAAACUAGGAGCACCAUUUCGCUGCCAGUGAAGAAAUGAACAAAGAAAAUCUGGGCCAGGCAGGCAUCAAAAGAAAUAGUCUUGCGCUCAACCAGAAAGUCUGUAAUCAUUUUAAGGGUA
# Variants of: B1
# Experiment: self-cleavage, relative activity (ratio to wild type); higher = more cleavage; in vitro, sequencing; the parent is a self-cleaving ribozyme
row,Variant,self-cleavage
1,GAUAACGGUCAUAGGCCAUGGAAACUGGGAGCACCAUUCCGCUGCCAGUGAAGAAAUGGACAAGGAAAAUCUGGGCCAGGCAGGCAUCAAAAGAAAUAGUCUUGCGCUCAACCAGAAAGUCUGUAAUCAUUUUAAGGGUA [U2A A27G U39C A59G A64G],0.54
2,GAUAACGGUCAUAGGCCAUGGGAACUAGGAGCUCCGUUUCGCUGCCAGUGAAGAAAUGAACAAAGAAAAUCUGGGCCAGGCAGGCAUCAAAAGAAAUAGUCUUGCGCUCAACCAGAAAGUCUGUAAUCAUUUUAAGGGUA [U2A A22G A33U A36G],1.02
3,GAUAACGGUCAUAGGCCAUGGAAGCUAGGAGCACCAUUUCGCUGCCAGUGAAGAAAUGAACGAAGAAAAUCUGGGCCAGGCAGGCAUCAAAAGAAAUAGUCUUGCGCUCAACCAGAAAGUCUGCAAUCAUUUUAAGGGUA [U2A A24G A62G U124C],0.62
4,GAUAACGGUCAUAGGCCAUGGAAACUUGGAGCACCAUUUCGCUGCCAGUGAAGAAAUGAACAAAGAAAAUCUGGGCCAGGCAGGCAUCAAAAGAAAUAGUCUUGCGCUCAACCAGAAAGUCUGUAAUCACUUUAAGGGUA [U2A A27U U130C],1.21
5,GAUAACGGUCAUAGGCCAUGGAAGCUAGGAGCACCAUUUCGCUGCCAGUGAAGAAAUGAACAAAGAAAAACUGGGCCAGGCAGGCAUCAAAAGAAAUAGUCUUGCGCUCAACCAGAAAGUCUGUAAUCAUUUUAAGGGUA [U2A A24G U70A],0.9
6,GAUAACGGUCAUAGGCCAUGGAAACUGGGAGCACCUUUUCGCUGCCAGUGAAGAAAUGAACAAAGAAAAUCUGGGCCAGGCAGGCAUCAAAAGAAAUAGUCUUGCGCUCAACCAGAAAGUCUGUAAUCAUUUUAAGGGUA [U2A A27G A36U],1.46
7,GAUAACGGUCAUAGGCCAUGGAAACUAGGUGCACCAUUUCGCUGCCGGUGAAGAAAUGAACAAAGAAAAUCUGGGCCAGGCAGGCAUCAGAAGAAAUAGUCUUGCGCUCAACCAGAAAGUCUGUAAUCAUUUUAAGGGUA [U2A A30U A47G A90G],0.64
8,GAUAACGGUCAUAGGCCAUGGAAACUAGGAGCACCAUUUCGCUGCCAGUGAAGAGAUGAACAAAGAAAAUCUGGGCCAGGCAGGCAUCAAAAGAAAUAGUCUCGCGCUCAACCAGAAAGUCCGUAAUCAUUUUAAGGGUA [U2A A55G U103C U122C],0.47
9,GAUAACGGUCAUAGGCCAUGGGAACUAGGAGCACCAUUUCGCUGCCAGUGAAGAAAUGAACAAAGAAAAUCUGGGCCAGGCAGGCAUCGAAAGAGAUAGUCUUGCGCUCAACCAGAAAGUCUGUAAUCAUUUUAAGGGUA [U2A A22G A89G A95G],0.88
10,GAUAACGGUCAUAGGCCAUGGAAACUAGGAGCACCAUUUCGCUGCCAGUGAGGAAAUGAACAAAGAAAAUCUGGGCCAGGCAGGCAUCAAAAGAAAUAGUCUUGCGCUCAACCAGAAAGUCUGUAGUCAUUUUAAGGGUA [U2A A52G A126G],0.82
11,GAUAACGGUCAUAGGCCAUGGAAACUAGGAGCACCAUUUCGCUGCCAGUGAAGAAUUGAACAAAGAAAAUCUGGGCCAGGCAGGCGUCAAAAGAAAUAGUCUUGCGCUCAACCAGAAAGUCUGUAAGCAUUUUAAGGGUG [U2A A56U A86G U127G A140G],0.28
12,GAUAACGGUCAUAGGCCAUGGAAACUAGGAGCUCCAUUUCGCUGCCAGUGAAGAAAUGAACAAAGAAAAUCUGGGCCAGACAGGCAUCAAAAGAAAUAGUCUUGCGCUCAACCAGAAGGUCUGUAAUCAUUUUAAGGGUA [U2A A33U G80A A118G],0.28
13,GAUAACGGUCAUAGGCCAUGGAAGCUAGGAGCACCAUUUCGCUGCCAGUGAAGAAAUGAGCAAAGAAAAUCUGGGCCAGGCAGGCAUCAAAAGAAAUAGUCUUGCGCUCAACCAGAAAGUCUGUAAUCAUUUUAAGGGUA [U2A A24G A60G],1.62
14,GAUAACGGUCAUAGGCCAUGGAAACUAGGGGCACCAUAUCGCUGCCAGUGAAGAAAUGAACUAAGAAAAUCUGGGCCAGGCUGGCAUCAAAAGGAAUAGUCUUGCGCUCAACCAGAAAGUCUGUAAUCAUUUUAAGGGUA [U2A A30G U38A A62U A82U A94G],0.14
15,GAUAACGGUCAUAGGCCAUGGAAGCCAGGAGCACCAUUUCGCUGCCAGUGAAGAAAUGAACAAAGAAAAUCUGGGCCAGGCAGGCAUCAAAAGAAAUAGUCUUGCGCUCAACCAGAAAGUCUGUAAUCAUUUUAAGGGUA [U2A A24G U26C],0.74
16,GAUAACGGUCAUAGGCCAUGGAAACUGGGAGCACCAUUUCGCUGCCAGUGAAGAAAUGAACAAAGAGAAUCUGGGCCAGGUAGGCAUCAAAAGAAAUAGUCUUGCGCUCAACCAGAAAGUCUGUAAUCAUUUCAAGGGUA [U2A A27G A67G C81U U133C],1.06
17,GAUAACGGUCAUAGGCCAUGGGAACUAGGAGCACCAUUUCGCUGCCAGUGAAGAAAUGAACAAAGAAAAUCUGGGCCAGGCAGGCAACAAAAGAAAUAGUCUUGCGCUCAACCAGAAAGUCUGUAAUCAUUUUAAGGGUA [U2A A22G U87A],0.68
18,GAUAACGGUCAUAGGCCAUGGAAACUAGGAGCACCUCUUCGCUGCCAGUGAAGAAAUGAACAAAGGAAAUCUGGGCCAGGCAGGCAUCAAAAGAAAUAGUCUUGCGCUCAACCAGAAAGUCUGUAAUCAUUUUAAGGGUA [U2A A36U U37C A66G],0.49
19,GAUAACGGUCAUAGGCCAUGGAAGCUAGGAGCACCAUUUCGCUGCCAGUGAAGAAAUGAACAAAGAAAACCUGGGCCAGGCAGGCAUCAAAAGAAGUAGUCUUGCGCUCAACCAGAAAGUCUGUAAUCAUUUUAAGGGUA [U2A A24G U70C A96G],1.04
20,GAUAACGGUCAUAGGCCAUGGAAACUAGGAGCACCAUUUCGCUGCCAGUGAGGAAAUGAACAAAGAAAAUCUGGGCCAGGCAGGCGUCAAAAGAAAUAGUCUUGCGCUCAACCAGAAAGUCUGUAAUCAUUUUAAGGGUA [U2A A52G A86G],0.93
21,GAUAACGGUCAUAGGCCAUGGAAACUAGGAGCACCAUUUCGCUGCCAGUGAAGAAGUGAACAAAGAAAGUCUGGGUCAGGCAGGCAUCAAAAGAAAUAGUCUUGCGCUCAACCAGAAAGUCUGUAAUCAUUUUAAGGGUA [U2A A56G A69G C76U],0.15
